# The other results are listed elsewhere or left out.
# Columns and labels:
# Test in all cases: glycan array binding signal (z-score within array); higher = stronger binding
# Details in all cases: glycan notation: IUPAC condensed, linker removed
# Glc(a1-4)Glc = molecular target: Glc(a1-4)Glc
# Summary of the method: (§1)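 Glycan array data were curated from 3228 arrays in the Consortium for Functional Glycomics database and kept only where the protein sequence was available. Glycan names were converted to IUPAC-condensed notation, and columns mapping to the same glycan were averaged. The binding signal is a within-array Z-score, averaged across arrays of the same protein sequence at different concentrations or buffers and across linkers. Negative Z-scores can be read as non-binding.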
# [1] = molecular target: Glc(a1-4)Glc(a1-4)Glc(a1-4)Glc
# Summary of the method: as §1
# Glc(a1-6)Glc(a1-6)Glc = molecular target: Glc(a1-6)Glc(a1-6)Glc
# Summary of the method: as §1
# [2] = molecular target: Glc(a1-6)Glc(a1-6)Glc(a1-6)Glc
# Summary of the method: as §1
# Glc(b1-4)Glc = molecular target: Glc(b1-4)Glc
# Summary of the method: as §1
# Glc(b1-6)Glc = molecular target: Glc(b1-6)Glc
# Summary of the method: as §1
# GlcA(b1-3)Gal = molecular target: GlcA(b1-3)Gal
# Summary of the method: as §1
# GlcA(b1-3)GlcNAc = molecular target: GlcA(b1-3)GlcNAc
# Summary of the method: as §1
# GlcA(b1-6)Gal = molecular target: GlcA(b1-6)Gal
# Summary of the method: as §1
# [3] = molecular target: GlcNAc(a1-3)Gal(b1-4)GlcNAc
# Summary of the method: as §1
# [4] = molecular target: GlcNAc(a1-4)Gal(b1-3)GlcNAc
# Summary of the method: as §1
# [5] = molecular target: GlcNAc(a1-4)Gal(b1-4)GalNAc
# Summary of the method: as §1
# [6] = molecular target: GlcNAc(a1-4)Gal(b1-4)GlcNAc
# Summary of the method: as §1
# [7] = molecular target: GlcNAc(a1-4)Gal(b1-4)GlcNAc(b1-3)Gal(b1-4)Glc
# Summary of the method: as §1
# [8] = molecular target: GlcNAc(a1-4)Gal(b1-4)GlcNAc(b1-3)Gal(b1-4)GlcNAc
# Summary of the method: as §1
# [9] = molecular target: GlcNAc(a1-4)Gal(b1-4)GlcNAc(b1-3)Gal(b1-4)GlcNAc(b1-3)Gal(b1-4)GlcNAc
# Summary of the method: as §1
# [10] = molecular target: GlcNAc(a1-4)Gal(b1-4)GlcNAc(b1-3)Gal(b1-4)[Fuc(a1-3)]GlcNAc(b1-3)Gal(b1-4)[Fuc(a1-3)]GlcNAc
# Summary of the method: as §1
# [11] = molecular target: GlcNAc(a1-6)Gal(b1-4)GlcNAc
# Summary of the method: as §1
# [12] = molecular target: GlcNAc(b1-2)Gal(b1-3)GalNAc
# Summary of the method: as §1
# [13] = molecular target: GlcNAc(b1-2)Man(a1-3)[GlcNAc(b1-2)Man(a1-6)]Man(b1-4)GlcNAc(b1-4)GlcNAc
# Summary of the method: as §1
# [14] = molecular target: GlcNAc(b1-2)Man(a1-3)[GlcNAc(b1-2)Man(a1-6)]Man(b1-4)GlcNAc(b1-4)[Fuc(a1-6)]GlcNAc
# Summary of the method: as §1
# [15] = molecular target: GlcNAc(b1-2)Man(a1-3)[GlcNAc(b1-4)][GlcNAc(b1-2)Man(a1-6)]Man(b1-4)GlcNAc(b1-4)GlcNAc
# Summary of the method: as §1
# [16] = molecular target: GlcNAc(b1-2)[GlcNAc(b1-4)]Man(a1-3)[GlcNAc(b1-2)Man(a1-6)]Man(b1-4)GlcNAc(b1-4)GlcNAc
# Summary of the method: as §1
# [17] = molecular target: GlcNAc(b1-2)[GlcNAc(b1-4)]Man(a1-3)[GlcNAc(b1-4)][GlcNAc(b1-2)Man(a1-6)]Man(b1-4)GlcNAc(b1-4)GlcNAc
# Summary of the method: as §1
# [18] = molecular target: GlcNAc(b1-2)[GlcNAc(b1-4)]Man(a1-3)[GlcNAc(b1-4)][GlcNAc(b1-2)[GlcNAc(b1-6)]Man(a1-6)]Man(b1-4)GlcNAc(b1-4)GlcNAc
# Summary of the method: as §1
# [19] = molecular target: GlcNAc(b1-2)[GlcNAc(b1-4)]Man(a1-3)[GlcNAc(b1-4)][GlcNAc(b1-2)[GlcNAc(b1-6)]Man(a1-6)]Man(b1-4)GlcNAc(b1-4)[Fuc(a1-6)]GlcNAc
# Summary of the method: as §1
# [20] = molecular target: GlcNAc(b1-2)[GlcNAc(b1-6)]Man(a1-6)[GlcNAc(b1-2)Man(a1-3)]Man(b1-4)GlcNAc(b1-4)GlcNAc
# Summary of the method: as §1
# [21] = molecular target: GlcNAc(b1-2)[GlcNAc(b1-6)]Man(a1-6)[GlcNAc(b1-2)Man(a1-3)]Man(b1-4)GlcNAc(b1-4)[Fuc(a1-6)]GlcNAc
# Summary of the method: as §1
# [22] = molecular target: GlcNAc(b1-2)[GlcNAc(b1-6)]Man(a1-6)[GlcNAc(b1-2)Man(a1-3)][GlcNAc(b1-4)]Man(b1-4)GlcNAc(b1-4)GlcNAc
# Summary of the method: as §1
# GlcNAc(b1-3)Gal = molecular target: GlcNAc(b1-3)Gal
# Summary of the method: as §1
binder,measurement,setting,value
"CvGal1 (Crassostrea virginica), A7Y0I5 (protein) MTYQISKISQPFTSYIPNGLHIGKHLLLRGRVSYGTEAFAINLQQNPEPCNGEVAFHFNPRPGEQQCVRNSFDGGSWMDEERDQPHFPFDEGRSFTLRIEVAEEGFRTYVNGKPYVNFSHRLDLGNVHYLYLTEGAEFYDISYQDRYTLPYKSEIPQQMNVGKAVRIRGASQDNDGFSVNFACDPDNENCAFHFNPRPNEGVVVRNANLGGWGDEERDYEAEFPFHPYNYFDAMFICTDDKYLVHVNDKYFTEFNHRGGVDASSFFNIVGNLDIQDVEYFEPLEDDFVKTIPSGLVKGDVLIFRGFMKPGGDTFSINFMNGYSVEDDIAFHLNPRVGEGQVVMNCCMGGAWGDEEREDIPSPLADREPFEVKVVVKKNKFKVYVNGKKCMKFAARGNLEDIKGVNIKGEAYVYEVKLERKLEDSWEYLPGGFRVGGWVVVQAIPKKGSEGFAINFRTGSDEDSDIAFHFNPRLQENCTIRNSCAGGAWGGEERDQPDFPFEKKDTCEIAIQAQPDRFVTYVNGKRYIEFNHRLPLESITCVELTGRADFFEPKFF",glycan array binding signal (z-score),Glc(a1-4)Glc,-0.27
same,glycan array binding signal (z-score),[1],-0.272
same,glycan array binding signal (z-score),Glc(a1-6)Glc(a1-6)Glc,-0.275
same,glycan array binding signal (z-score),[2],-0.276
same,glycan array binding signal (z-score),Glc(b1-4)Glc,-0.303
same,glycan array binding signal (z-score),Glc(b1-6)Glc,-0.257
same,glycan array binding signal (z-score),GlcA(b1-3)Gal,-0.321
same,glycan array binding signal (z-score),GlcA(b1-3)GlcNAc,-0.243
same,glycan array binding signal (z-score),GlcA(b1-6)Gal,-0.259
same,glycan array binding signal (z-score),[3],1.9
same,glycan array binding signal (z-score),[4],-0.313
same,glycan array binding signal (z-score),[5],-0.271
same,glycan array binding signal (z-score),[6],-0.266
same,glycan array binding signal (z-score),[7],-0.221
same,glycan array binding signal (z-score),[8],-0.301
same,glycan array binding signal (z-score),[9],-0.29
same,glycan array binding signal (z-score),[10],-0.119
same,glycan array binding signal (z-score),[11],-0.264
same,glycan array binding signal (z-score),[12],-0.288
same,glycan array binding signal (z-score),[13],-0.297
same,glycan array binding signal (z-score),[14],-0.3
same,glycan array binding signal (z-score),[15],-0.278
same,glycan array binding signal (z-score),[16],-0.282
same,glycan array binding signal (z-score),[17],-0.261
same,glycan array binding signal (z-score),[18],-0.288
same,glycan array binding signal (z-score),[19],-0.249
same,glycan array binding signal (z-score),[20],-0.231
same,glycan array binding signal (z-score),[21],-0.252
same,glycan array binding signal (z-score),[22],-0.268
same,glycan array binding signal (z-score),GlcNAc(b1-3)Gal,-0.285
